Patent publication US20220339143A1, “TAK-925 FOR USE IN TREATING NARCOLEPSY” (Takeda Pharmaceutical Company Limited, priority 2019, published 2022)
Further values from the same series stand in other lists.

Assay: Single dose PK in healthy subjects (Cohorts 1, 2, S1 and S2), plasma
Format: in vivo, human
Experimental: This study investigates (i) the safety and tolerability of Compound A (methyl (2R,3S)-3-((methylsulfonyl)amino)-2-(((cis-4-phenylcyclohexyl)oxy)methyl)piperidine-1-carboxylate) when a single dose given as a 9 hour continuous IV infusion is administered to healthy adults, healthy elderly subjects and patients with narcolepsy type 1 (NT1); (ii) the pharmacokinetics of Compound A when a single dose given as a 9 hour continuous IV infusion is administered to healthy adults, healthy elderly subjects and patients with narcolepsy type 1; and (iii) the pharmacodynamics (PD) effects of Compound A, primarily by evaluation of the sleep latency on MWT when a single dose given as a 9 hour continuous IV infusion is administered to patients with narcolepsy type 1.
Pharmacokinetics: Concentrations of Compound A in plasma, and CSF, and pharmacokinetics parameters.
On average, the time to reach the plateau appeared to be approximately 3 to 4 hours after the start of infusion. […] After switching off the IV infusion, Compound A plasma concentrations declined rapidly and in a biphasic manner with a mean terminal disposition phase t1/2z ranging approximately from 3.4 to 5.1 hours across all doses. […] Table 5 provides a summary of plasma concentrations of Compound A after a single IV infusion in healthy subjects. Table 6 provides a summary of pharmacokinetic parameters of Compound A after a single IV infusion in healthy subjects.

[1] = 7 mg, 0.17 hr After End of Infusion
[2] = 7 mg, 0.5 hr After End of Infusion
[3] = 7 mg, 0.75 hr After End of Infusion
[4] = 7 mg, 1 hr After End of Infusion
[5] = 7 mg, 1.5 hr After End of Infusion
[6] = 7 mg, 2 hr After End of Infusion
[7] = 7 mg, 3 hr After End of Infusion
[8] = 7 mg, 4 hr After End of Infusion
[9] = 7 mg, 6 hr After End of Infusion
[10] = 7 mg, 15 hr After End of Infusion
[11] = 14 mg, 0.17 hr After End of Infusion
[12] = 14 mg, 0.33 hr After End of Infusion
[13] = 14 mg, 0.5 hr After End of Infusion
[14] = 14 mg, 0.75 hr After End of Infusion
[15] = 14 mg, 1 hr After End of Infusion
[16] = 14 mg, 1.5 hr After End of Infusion
[17] = 14 mg, 2 hr After End of Infusion
[18] = 14 mg, 3 hr After End of Infusion
[19] = 14 mg, 4 hr After End of Infusion
[20] = 14 mg, 6 hr After End of Infusion
[21] = 14 mg, 15 hr After End of Infusion

## COC(=O)N1CCC[C@H](NS(C)(=O)=O)[C@@H]1CO[C@H]1CC[C@@H](c2ccccc2)CC1 [Compound A, methyl (2R,3S)-3-((methylsulfonyl)amino)-2-(((cis-4-phenylcyclohexyl)oxy)methyl)piperidine-1-carboxylate]
[1]
  Plasma concentration, Maximum: 10.6 ng/mL
  Plasma concentration, Median: 9.460 ng/mL
  Plasma concentration, Q3: 9.740 ng/mL
7 mg, 0.33 hr After End of Infusion
  Plasma concentration, Maximum: 8.86 ng/mL
[2]
  Plasma concentration, Maximum: 8.10 ng/mL
  Plasma concentration, Q3: 6.720 ng/mL
[3]
  Plasma concentration, Maximum: 5.95 ng/mL
  Plasma concentration, Q3: 5.790 ng/mL
[4]
  Plasma concentration, Maximum: 5.65 ng/mL
  Plasma concentration, Q3: 4.900 ng/mL
[5]
  Plasma concentration, Maximum: 4.74 ng/mL
  Plasma concentration, Q3: 4.590 ng/mL
[6]
  Plasma concentration, Maximum: 2.96 ng/mL
  Plasma concentration, Mean: 2.516 ng/mL
  Plasma concentration, Median: 2.340 ng/mL
  Plasma concentration, Minimum: 2.26 ng/mL
  Plasma concentration, Q1: 2.290 ng/mL
  Plasma concentration, Q3: 2.730 ng/mL
[7]
  Plasma concentration, Maximum: 1.99 ng/mL
  Plasma concentration, Mean: 1.774 ng/mL
  Plasma concentration, Median: 1.890 ng/mL
  Plasma concentration, Minimum: 1.45 ng/mL
  Plasma concentration, Q1: 1.610 ng/mL
  Plasma concentration, Q3: 1.930 ng/mL
[8]
  Plasma concentration, Maximum: 1.85 ng/mL
  Plasma concentration, Mean: 1.490 ng/mL
  Plasma concentration, Median: 1.480 ng/mL
  Plasma concentration, Minimum: 1.06 ng/mL
  Plasma concentration, Q1: 1.280 ng/mL
  Plasma concentration, Q3: 1.780 ng/mL
[9]
  Plasma concentration, Maximum: 1.24 ng/mL
  Plasma concentration, Mean: 0.9622 ng/mL
  Plasma concentration, Median: 0.9060 ng/mL
  Plasma concentration, Minimum: 0.746 ng/mL
  Plasma concentration, Q1: 0.7990 ng/mL
  Plasma concentration, Q3: 1.120 ng/mL
[10]
  Plasma concentration, Maximum: 0.501 ng/mL
  Plasma concentration, Mean: 0.1878 ng/mL
  Plasma concentration, Median: 0.000 ng/mL
  Plasma concentration, Minimum: 0.00 ng/mL
  Plasma concentration, Q1: 0.000 ng/mL
  Plasma concentration, Q3: 0.4380 ng/mL
7 mg, Predose
  Plasma concentration, Maximum: 0.00 ng/mL
  Plasma concentration, Median: 0.000 ng/mL
  Plasma concentration, Q3: 0.000 ng/mL
[11]
  Plasma concentration, Maximum: 22.7 ng/mL
  Plasma concentration, Mean: 19.38 ng/mL
  Plasma concentration, Median: 19.65 ng/mL
  Plasma concentration, Minimum: 14.1 ng/mL
  Plasma concentration, Q1: 18.00 ng/mL
  Plasma concentration, Q3: 22.20 ng/mL
[12]
  Plasma concentration, Maximum: 20.5 ng/mL
  Plasma concentration, Mean: 16.58 ng/mL
  Plasma concentration, Median: 17.00 ng/mL
  Plasma concentration, Minimum: 11.5 ng/mL
  Plasma concentration, Q1: 14.90 ng/mL
  Plasma concentration, Q3: 18.60 ng/mL
[13]
  Plasma concentration, Maximum: 18.1 ng/mL
  Plasma concentration, Mean: 14.95 ng/mL
  Plasma concentration, Median: 15.15 ng/mL
  Plasma concentration, Minimum: 10.6 ng/mL
  Plasma concentration, Q1: 12.80 ng/mL
  Plasma concentration, Q3: 17.90 ng/mL
[14]
  Plasma concentration, Maximum: 15.9 ng/mL
  Plasma concentration, Mean: 12.78 ng/mL
  Plasma concentration, Median: 12.90 ng/mL
  Plasma concentration, Minimum: 9.06 ng/mL
  Plasma concentration, Q1: 10.90 ng/mL
  Plasma concentration, Q3: 15.00 ng/mL
[15]
  Plasma concentration, Maximum: 14.6 ng/mL
  Plasma concentration, Mean: 11.65 ng/mL
  Plasma concentration, Median: 11.15 ng/mL
  Plasma concentration, Minimum: 8.00 ng/mL
  Plasma concentration, Q1: 10.80 ng/mL
  Plasma concentration, Q3: 14.20 ng/mL
[16]
  Plasma concentration, Maximum: 13.5 ng/mL
  Plasma concentration, Mean: 10.22 ng/mL
  Plasma concentration, Median: 10.12 ng/mL
  Plasma concentration, Minimum: 6.95 ng/mL
  Plasma concentration, Q1: 8.660 ng/mL
  Plasma concentration, Q3: 12.00 ng/mL
[17]
  Plasma concentration, Maximum: 9.15 ng/mL
  Plasma concentration, Mean: 6.888 ng/mL
  Plasma concentration, Median: 7.110 ng/mL
  Plasma concentration, Minimum: 4.84 ng/mL
  Plasma concentration, Q1: 5.060 ng/mL
  Plasma concentration, Q3: 8.060 ng/mL
[18]
  Plasma concentration, Maximum: 6.11 ng/mL
  Plasma concentration, Mean: 4.567 ng/mL
  Plasma concentration, Median: 4.435 ng/mL
  Plasma concentration, Minimum: 3.41 ng/mL
  Plasma concentration, Q1: 3.890 ng/mL
  Plasma concentration, Q3: 5.120 ng/mL
[19]
  Plasma concentration, Maximum: 5.24 ng/mL
  Plasma concentration, Mean: 3.873 ng/mL
  Plasma concentration, Median: 3.465 ng/mL
  Plasma concentration, Minimum: 2.97 ng/mL
  Plasma concentration, Q1: 3.100 ng/mL
  Plasma concentration, Q3: 5.000 ng/mL
[20]
  Plasma concentration, Maximum: 3.39 ng/mL
  Plasma concentration, Mean: 2.355 ng/mL
  Plasma concentration, Median: 2.090 ng/mL
  Plasma concentration, Minimum: 1.56 ng/mL
  Plasma concentration, Q1: 1.700 ng/mL
  Plasma concentration, Q3: 3.300 ng/mL
[21]
  Plasma concentration, Maximum: 1.78 ng/mL
  Plasma concentration, Mean: 0.7192 ng/mL
  Plasma concentration, Median: 0.4820 ng/mL
  Plasma concentration, Minimum: 0.237 ng/mL
  Plasma concentration, Q1: 0.3360 ng/mL
  Plasma concentration, Q3: 0.9980 ng/mL
14 mg, Predose
  Plasma concentration, Maximum: 0.00 ng/mL
  Plasma concentration, Mean: 0.000 ng/mL
  Plasma concentration, Median: 0.000 ng/mL
  Plasma concentration, Minimum: 0.00 ng/mL
  Plasma concentration, Q1: 0.000 ng/mL
  Plasma concentration, Q3: 0.000 ng/mL
28 mg, 3 hr After End of Infusion
  Plasma concentration, Maximum: 13.4 ng/mL
